This is an account of results in paper PMC5892938.

The list shows a part of the results. At the low end of the ranking the order means little.

The target in the assay is GST-SBP-SLBP (stem-loop binding protein) (UniProt Q14493). Put plainly: targeted RNA Bind-n-Seq.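 Further: DESeq read counts versus GST-SBP nonspecific binding control pulldown.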 Conditions: RBNS binding buffer: 25 mM Tris pH 7.5, 150 mM KCl, 3 mM MgCl2, 0.1% Tween, 0.5 mg/mL BSA, 1 mM DTT; 27 nM protein, 750 pM RNA pool; temperature not stated; high values mean tight binding.
With “GGUCACGUCUCAAUCAACUCAACUUCCAGGGAAAGCCCUGGCUAACUCAACAGCUCGCAGUCAAG”, the binding signal (log2 fold change) is -0.0158.

As to “GGUCACGUCUCAAUCAACUCUUCUUCAGGAGUUUACUCCUGUAUAUUCAACAGCUCGCAGUCAAG”, the binding signal (log2 fold change) is 0.0626. “GGUCACGUCUCAAUCAACUCUUAAGAGGGGGGGAAAACCCCUUUACCCUCGCCAUCAACAGCUCGCAGUCAAG”: the binding signal (log2 fold change) stood at 0.455. For the sequence “GGUCACGUCUCAAUCAACUCAGUUCCAGGAGUUUCCUCCUGUAUAUUCAACAGCUCGCAGUCAAG”, the binding signal (log2 fold change) was -0.059.

Consider “GGUCACGUCUCAAUCAACUCAACGCCAGGAGUUUACUCCUGCUAAUUCAACAGCUCGCAGUCAAG”, for which the binding signal (log2 fold change) is -0.0116.

Regarding “GGUCACGUCUCAAUCAACUCUCAAGAGGGGGGGAAAACCCCUUUACCCUCGUCAUCAACAGCUCGCAGUCAAG”, the binding signal (log2 fold change) is -0.424. Turning to “GGUCACGUCUCAAUCAACUCUUCUCCCAGGGAAAUCCCUGGUUUUUUCAACAGCUCGCAGUCAAG”, the binding signal (log2 fold change) is -0.12. Consider “GGUCACGUCUCAAUCAACUCAAUUUCAGGAGUUUACUCCUGUAUAUUCAACAGCUCGCAGUCAAG”, for which the binding signal (log2 fold change) is 0.124.

As to “GGUCACGUCUCAAUCAACUCAUCCUCAGGAGUUUGCUCCUGCAAUCUCAACAGCUCGCAGUCAAG”, the binding signal (log2 fold change) stood at 0.164. Consider “GGUCACGUCUCAAUCAACUCAUCCCCAGGAGUUUUCUCCUGUUAAGUCAACAGCUCGCAGUCAAG”, for which the binding signal (log2 fold change) worked out at 0.213.

With “GGUCACGUCUCAAUCAACUCUAUCCCCAGGGAAACCCCUGGCUUUCUCAACAGCUCGCAGUCAAG”, the binding signal (log2 fold change) is -0.0276. With “GGUCACGUCUCAAUCAACUCUACUCCAGGAGUUUUCUCCUGCAUAUUCAACAGCUCGCAGUCAAG”, the binding signal (log2 fold change) is -0.074. To “GGUCACGUCUCAAUCAACUCAUCCUCAGGAGUUUCCUCCUGCUAAUUCAACAGCUCGCAGUCAAG” belongs 0.166. As for “GGUCACGUCUCAAUCAACUCUUUCUCCAGGGAAAACCCUGGCAAUGUCAACAGCUCGCAGUCAAG”, the binding signal (log2 fold change) was -0.0529. To “GGUCACGUCUCAAUCAACUCACUAGAGGGGGGGAAAACCCCUUUGCCCUCCAAUUCAACAGCUCGCAGUCAAG” belongs 0.242; to “GGUCACGUCUCAAUCAACUCAACAGAGGGGGGGAAAACCCCUUUACCCUCAACCUCAACAGCUCGCAGUCAAG”, -0.196; to “GGUCACGUCUCAAUCAACUCUUUCUCCAGGGAAAUCCCUGGUAUUUUCAACAGCUCGCAGUCAAG”, -0.0653.

“GGUCACGUCUCAAUCAACUCAAUCUCAGGAGUUUCCUCCUGCUUAGUCAACAGCUCGCAGUCAAG”: the binding signal (log2 fold change) was -0.0715. The value for “GGUCACGUCUCAAUCAACUCUAUUCCAGGAGUUUUCUCCUGUUUAUUCAACAGCUCGCAGUCAAG” was 0.0461; that for “GGUCACGUCUCAAUCAACUCCUCAGAGGGGGGGAAAACCCCUUUACCCUCCUACUCAACAGCUCGCAGUCAAG” was 0.136. In the case of “GGUCACGUCUCAAUCAACUCAUUUCCCAGGGAAAUCCCUGGUAUAUUCAACAGCUCGCAGUCAAG”, the binding signal (log2 fold change) amounted to 0.00231. In the case of “GGUCACGUCUCAAUCAACUCCUUAGAGGGGGGGAAAACCCCUUUACCCUCCAUUUCAACAGCUCGCAGUCAAG”, the binding signal (log2 fold change) is -0.351.

As to “GGUCACGUCUCAAUCAACUCUUUCUCAGGAGUUUACUCCUGCAUUCUCAACAGCUCGCAGUCAAG”, the binding signal (log2 fold change) worked out at 0.057. Turning to “GGUCACGUCUCAAUCAACUCUAUUCCCAGGGAAAUCCCUGGCAUUUUCAACAGCUCGCAGUCAAG”, the binding signal (log2 fold change) is -0.0376.

On to “GGUCACGUCUCAAUCAACUCUAUCGAGGGGGGGAAAACCCCUUUGCCCUCACUAUCAACAGCUCGCAGUCAAG”, for which the binding signal (log2 fold change) is -0.253. Turning to “GGUCACGUCUCAAUCAACUCAUUUUCCAGGGAAAGCCCUGGCAAUUUCAACAGCUCGCAGUCAAG”, the binding signal (log2 fold change) came to 0.224. Consider “GGUCACGUCUCAAUCAACUCAUUCCCAGGAGUUUGCUCCUGCUAAUUCAACAGCUCGCAGUCAAG”, for which the binding signal (log2 fold change) came out at 0.105. To “GGUCACGUCUCAAUCAACUCUUACGAGGGGGGGAAAACCCCUUUACCCUCAACCUCAACAGCUCGCAGUCAAG” belongs -0.16; to “GGUCACGUCUCAAUCAACUCAUCCUCAGGAGUUUCCUCCUGCUAUCUCAACAGCUCGCAGUCAAG”, 0.286; to “GGUCACGUCUCAAUCAACUCAACUUCCAGGGAAAUCCCUGGCUAUUUCAACAGCUCGCAGUCAAG”, 0.206. On to “GGUCACGUCUCAAUCAACUCAUCGUCCAGGGAAAUCCCUGGUUUAUUCAACAGCUCGCAGUCAAG”, for which the binding signal (log2 fold change) is -0.0855. The value for “GGUCACGUCUCAAUCAACUCAGUCUCCAGGGAAAGCCCUGGUUAAUUCAACAGCUCGCAGUCAAG” was 0.103; that for “GGUCACGUCUCAAUCAACUCUUCUUCCAGGGAAAGCCCUGGCUUAUUCAACAGCUCGCAGUCAAG” was 0.0973. The value for “GGUCACGUCUCAAUCAACUCAUUUCCCAGGGAAAACCCUGGCAAUUUCAACAGCUCGCAGUCAAG” was 0.104; that for “GGUCACGUCUCAAUCAACUCCAAUGAGGGGGGGAAAACCCCUUUACCCUCCACAUCAACAGCUCGCAGUCAAG” was -0.219; that for “GGUCACGUCUCAAUCAACUCUCUAGAGGGGGGGAAAACCCCUUUACCCUCCGCAUCAACAGCUCGCAGUCAAG” was -0.111. On to “GGUCACGUCUCAAUCAACUCUAUCUCAGGAGUUUACUCCUGCUAACUCAACAGCUCGCAGUCAAG”, for which the binding signal (log2 fold change) is 0.194.
